Data: patent US20150139975A1 (published 2015)

Biological target: T1, C3b (UniProt P01024 23-667; P01024 part only)
T1 construct: Amine-coupled to a CM5 Biacore chip in the SPR assays; in solution in the cofactor assay; also called complement C3b
Assay: SPR (Biacore), C3b on a CM5 chip
Description: FIG. 3F—Surface plasmon resonance was used to monitor formation of the C3bBb (convertase) complex as factor D and factor B were flowed together over C3b that was amine-coupled to a CM5 (Biacore) sensor chip. The subsequent decline in response reflects decay of the complex as Bb is released from the chip surface. The rate of decay is accelerated by initiating (in this case 210 s into the natural decay process) a flow of reference FH or rFH. […] The control proteins, BSA and FH modules 19-20, have no effect on decay.

C3b, sequence (P01024 23-667 limits assumed, chain 1 of 2): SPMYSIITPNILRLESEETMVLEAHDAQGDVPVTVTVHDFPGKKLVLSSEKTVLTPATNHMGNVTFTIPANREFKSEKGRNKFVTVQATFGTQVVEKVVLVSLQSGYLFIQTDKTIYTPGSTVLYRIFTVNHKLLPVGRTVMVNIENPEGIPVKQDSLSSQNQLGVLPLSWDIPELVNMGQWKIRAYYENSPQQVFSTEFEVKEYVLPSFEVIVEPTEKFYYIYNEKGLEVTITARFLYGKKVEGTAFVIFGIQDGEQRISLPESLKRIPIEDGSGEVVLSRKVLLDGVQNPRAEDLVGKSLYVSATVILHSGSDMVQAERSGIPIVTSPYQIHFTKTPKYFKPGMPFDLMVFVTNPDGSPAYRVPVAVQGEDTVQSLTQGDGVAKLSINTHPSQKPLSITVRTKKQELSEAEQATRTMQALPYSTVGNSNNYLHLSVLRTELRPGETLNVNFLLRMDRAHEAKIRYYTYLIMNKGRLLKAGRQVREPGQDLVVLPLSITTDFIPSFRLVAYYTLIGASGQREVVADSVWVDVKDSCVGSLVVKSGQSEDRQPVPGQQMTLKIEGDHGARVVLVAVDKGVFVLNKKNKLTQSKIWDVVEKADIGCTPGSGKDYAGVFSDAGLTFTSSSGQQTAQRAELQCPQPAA
C3b, sequence (P01024 749-1663 limits assumed, chain 2 of 2): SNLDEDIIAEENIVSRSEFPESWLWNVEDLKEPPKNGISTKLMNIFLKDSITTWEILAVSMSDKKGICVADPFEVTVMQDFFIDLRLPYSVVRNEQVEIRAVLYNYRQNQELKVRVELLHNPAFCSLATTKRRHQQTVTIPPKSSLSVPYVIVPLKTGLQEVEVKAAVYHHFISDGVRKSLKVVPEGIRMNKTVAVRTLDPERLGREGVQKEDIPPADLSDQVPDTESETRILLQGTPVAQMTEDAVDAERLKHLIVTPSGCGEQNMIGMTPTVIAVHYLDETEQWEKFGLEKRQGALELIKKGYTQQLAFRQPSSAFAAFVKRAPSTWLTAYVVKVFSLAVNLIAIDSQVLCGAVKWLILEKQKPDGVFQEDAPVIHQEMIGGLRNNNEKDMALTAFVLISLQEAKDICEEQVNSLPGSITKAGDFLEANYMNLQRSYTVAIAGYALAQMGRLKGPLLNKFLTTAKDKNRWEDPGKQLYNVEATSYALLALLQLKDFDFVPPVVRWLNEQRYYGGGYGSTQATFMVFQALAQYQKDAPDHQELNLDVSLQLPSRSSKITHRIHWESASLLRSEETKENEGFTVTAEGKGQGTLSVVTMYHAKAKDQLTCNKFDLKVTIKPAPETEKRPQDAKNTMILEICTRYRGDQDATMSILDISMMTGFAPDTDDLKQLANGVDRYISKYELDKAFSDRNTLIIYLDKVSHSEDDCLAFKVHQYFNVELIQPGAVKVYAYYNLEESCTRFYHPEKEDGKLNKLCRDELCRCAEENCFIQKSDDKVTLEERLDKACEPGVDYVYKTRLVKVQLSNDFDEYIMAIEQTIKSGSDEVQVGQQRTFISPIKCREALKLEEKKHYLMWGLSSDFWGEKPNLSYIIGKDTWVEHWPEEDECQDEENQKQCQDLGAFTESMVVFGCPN

B1: factor B (enzyme, UniProt P00751 26-764, looked up)
chain: TPWSLARPQGSCSLEGVEIKGGSFRLLQEGQALEYVCPSGFYPYPVQTRTCRSTGSWSTLKTQDQKTVRKAECRAIHCPRPHDFENGEYWPRSPYYNVSDEISFHCYDGYTLRGSANRTCQVNGRWSGQTAICDNGAGYCSNPGIPIGTRKVGSQYRLEDSVTYHCSRGLTLRGSQRRTCQEGGSWSGTEPSCQDSFMYDTPQEVAEAFLSSLTETIEGVDAEDGHGPGEQQKRKIVLDPSGSMNIYLVLDGSDSIGASNFTGAKKCLVNLIEKVASYGVKPRYGLVTYATYPKIWVKVSEADSSNADWVTKQLNEINYEDHKLKSGTNTKKALQAVYSMMSWPDDVPPEGWNRTRHVIILMTDGLHNMGGDPITVIDEIRDLLYIGKDRKNPREDYLDVYVFGVGPLVNQVNINALASKKDNEQHVFKVKDMENLEDVFYQMIDESQSLSLCGMVWEHRKGTDYHKQPWQAKISVIRPSKGHESCMGAVVSEYFVLTAAHCFTVDDKEHSIKVSVGGEKRDLEIEVVLFHPNYNINGKKEAGIPEFYDYDVALIKLKNKLKYGQTIRPICLPCTEGTTRALRLPPTTTCQQQKEELLPAQDIKALFVSEEEKKLTRKEVYIKNGDKKGSCERDAQYAPGYDKVKDISEVVTPRFLCTGGVSPYADPNTCRGDSGGPLIVHKRSRFIQVGVISWGVVDVCKNQKRQKQVPAHARDFHINLFQVLPWLKEKLQDEDLGFL
notes: also called Bb (after cleavage by factor D)
B1: binds.
